Each structure is given as a SMILES string. In all, about 340,000 compounds went through this assay and about 6,900 (2%) were called active. Rule as the data show it: active = inhibition above about 30%; inactive = below that, where a call was filed. The entries are a selection whose mix differs from that of the whole data set. Entries without a call were filed so in the source.

This assay concerns the target D(2) dopamine receptor (Homo sapiens) (UniProt P14416). Nature of the assay: HTS Assay for Allosteric Antagonists of the Human D2 Dopamine Receptor: Primary Screen for Antagonists. Also: 0% is about no effect. The settings on record: HEK293 TREx D2 cells, calcium flux, dopamine EC80; at 10 µM; stronger effect = higher value. The gist of the method: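 Calcium mobilization kinetics were recorded at 1 s intervals in tetracycline-induced HEK293 T-REx D2 cells, first for 180 s after compound addition and then 180 s after EC80 dopamine.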
Sequence of UniProt P14416 (P14416 whole entry, looked up): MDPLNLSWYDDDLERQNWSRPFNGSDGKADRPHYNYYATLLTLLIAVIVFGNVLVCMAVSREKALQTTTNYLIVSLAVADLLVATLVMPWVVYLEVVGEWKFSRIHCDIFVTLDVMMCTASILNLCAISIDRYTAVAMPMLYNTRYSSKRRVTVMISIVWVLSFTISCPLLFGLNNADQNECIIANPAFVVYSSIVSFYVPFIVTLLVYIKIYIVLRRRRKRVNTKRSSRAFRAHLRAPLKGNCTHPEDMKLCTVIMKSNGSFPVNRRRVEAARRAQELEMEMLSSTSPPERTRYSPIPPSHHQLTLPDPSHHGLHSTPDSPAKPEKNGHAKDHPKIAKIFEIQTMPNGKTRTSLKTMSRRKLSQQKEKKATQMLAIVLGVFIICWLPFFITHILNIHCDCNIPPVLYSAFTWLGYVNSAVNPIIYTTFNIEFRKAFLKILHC
In general terms: Calcium assays in cells follow changes in intracellular calcium, usually with a dye or a luminescent sensor.
By inhibition is commonly meant the change of the read-out against control, counted positive when it falls. As for `Cc1cccc(NC(=O)Nc2cccs2)c1C`, the inhibition was -8.18%.
For `C=CCc1cc(Cl)ccc1OCCNCCOC` the value was active: 55.2%; for `CCCCCCc1c(C)c2c(cc(C)c3c(C)coc32)oc1=O`, -1.15%.
The figure for `Cc1ccc(C)c(NC(=O)Cn2ncc3c(C)n(Cc4ccc(F)cc4)c(C)c3c2=O)c1` is -0.75%; for `CCn1cc(C(=O)OCC(=O)Nc2cc(Cl)ccc2C)c(=O)c2ccc(C)nc21` it is -11.7%; for `Cc1ccc(NC(=O)C2CCN(S(=O)(=O)c3cccc4nsnc34)CC2)cc1` it is 0.004%.
As for `CCCCOc1ccc(C2C(=O)N(C3CCCCC3)CC(=O)N2C2CCCCC2)cc1` (configuration not stated), the inhibition was found to be 12.2%.
The figure for `Cc1ccc(NC(=O)CN2C(=O)C(c3ccc(F)cc3)=NC23CCCCCC3)c(C)c1` is 0.578%.
In the case of `Cc1ccc(C)c(N2CCN(C(=O)c3cc4cc5ccc(C)cc5nc4o3)CC2)c1`, the inhibition was -2.21%.
The figure for `CC1CCN(S(=O)(=O)c2ccc3nc(NCc4ccc(N(C)C)cc4)ccc3c2)CC1` is 4.61%.
The figure for `CCc1cccc(NC(=O)Cn2c(=O)n(CCCCCC(=O)NCc3ccc(F)cc3)c(=O)c3sccc32)c1` is -3.35%; for `CCOC(=O)N1CCc2c(sc3c2c(=O)n(-c2ccc(CC)cc2)c(=O)n3Cc2cccc(Cl)c2)C1` it is 11.9%.
For `CCC1CN(C(=O)N2CCC(C(=O)NCCc3ccc(OC)c(OC)c3)CC2)c2ccccc2O1` (configuration not stated) the value was -12.3%; for `Cc1ccc(C)c(N2CCN(C(=O)C3CCC(CNS(=O)(=O)c4cccs4)CC3)CC2)c1` (configuration not stated), -6.68%; for `Cc1ccc(CNC(=O)CSc2c(C)cnc3c2c(=O)n(C)c(=O)n3C)cc1`, -26.4%.
Regarding `COc1cccc(/C=N/NC(=O)CNC(=O)/C=C\c2ccccc2)c1O`, the inhibition is active: 53.8%.
For `CC(=O)Nc1nonc1-c1nnc(SCC(=O)Nc2cc(C)cc(C)c2)n1-c1ccccc1` the value was -0.562%.
The figure for `CCN(CC)CCN(C(=O)c1ccco1)c1nc2ccc(Br)cc2s1` is 27.8%; for `CCCOc1ccc(-c2nc(SC)[nH]c(=O)c2C#N)cc1OC` it is 0.505%; for `COc1ccccc1OCc1ccc(C(=O)NN)o1` it is active: 76.5%.
`O=C(c1ccc2c(c1)N(Cc1ccccc1)C(=O)c1ccccc1S2(=O)=O)N1CCCCCC1`: the inhibition is -7.48%.
Regarding `Cc1ccc(S(=O)(=O)c2c(Nc3cc(F)ccc3F)sc(C(=O)c3ccc(F)cc3)c2N)cc1`, the inhibition came out at 2.68%.
With `CCCCN(C)CCCNC(=O)c1ccc2c(c1)N(CC)C(=O)c1ccccc1S2=O` (configuration not stated), the inhibition is active: 69.8%.
For `CCCN(CCC)CCCNC(=O)Cn1ncc2c3ccccc3n(Cc3ccccc3)c2c1=O` the value was -7.12%.
Consider `Cc1ccc(C(=O)Nc2ccc(OCc3cc(=O)n4c(C)csc4n3)cc2)cc1`, for which the inhibition worked out at 15.8%.
Regarding `Cc1ccc(Nc2c(-c3ccc(O)cc3)nc3cccc(C)n23)cc1`, the inhibition is -0.986%.
The figure for `Cc1cccc(NC(=O)CSc2nncn2C)c1` is -9.33%.
Take `Cc1nc(-c2ccc(Cl)cc2)sc1CCNC(=O)c1cccs1`: the inhibition came out at 11.3%.
For `CCc1nn(C(CC)C(=O)NCc2ccc(F)cc2)c(=O)c2cc3occc3n12` (configuration not stated) the value was 12.6%; for `COc1cc(C(=O)NCC(c2ccco2)S(=O)(=O)c2ccccc2)cc(OC)c1OC` (configuration not stated), -2.8%.
For `CCCOc1ccc(C(=O)N(Cc2ccc(N(C)C)cc2)CC2CCCO2)cc1` (configuration not stated) the value was -0.053%.
For `CC1=C(C(=O)Nc2ccccc2)C(CC(C)C)n2nc(SCc3ccccc3C)nc2N1` (configuration not stated) the value was -4.24%; for `O=C(c1cc2c(s1)-c1ccccc1OC2)N1CCN(c2ccccc2)CC1`, -3.26%; for `Cc1cc(C)cc(NC(=O)C2CCCN(C(=O)c3cnn(-c4ccccc4)c3-n3cccc3)C2)c1` (configuration not stated), -0.143%.
Turning to `O=C(CSc1nc2c([nH]c3ccccc32)c(=O)n1-c1ccc(Cl)cc1)N1CCOCC1`, the inhibition amounted to 2.78%.
As for `O=C(c1ccc2nc(N3CCOCC3)sc2c1)N1CCC(Cc2ccccc2)CC1`, the inhibition is active: 31.8%.
For `CCC1CCCCN1CC(=O)Nc1cc(C)c2c(=O)oc3ccccc3c2n1` (configuration not stated) the value was 0.752%; for `Cc1ccc(-c2nonc2NC(=O)c2ccc(F)cc2)cc1C`, -12.6%; for `Cc1ccc(NC(=O)N2CCC(c3ccccc3)C2)cc1C` (configuration not stated), 2.18%.
Turning to `Cc1cccc(NC(=O)CSc2c(C)cnc3c2c(=O)n(C)c(=O)n3C)c1C`, the inhibition worked out at 0.487%.
With `O=C(CN1CCCN(Cc2ccccc2Cl)S1(=O)=O)NCc1ccccc1`, the inhibition came to 0.407%.
As for `Cc1cccn2c(=O)cc(COc3cccc(NC(=O)COc4ccc(F)cc4)c3)nc12`, the inhibition was -3.75%.
Take `COc1ccccc1CN1C[C@@H]2C[C@@H](C3=Cc4cc(Cl)ccc4OC3)N3CCC[C@@]23C1=O`: the inhibition is active: 30.6%.
Take `CC(NC(=O)c1ccccc1Cl)c1nnc(SCC(=O)Nc2ccc(C(=O)O)cc2)n1C` (configuration not stated): the inhibition is active: 30.5%.
The figure for `CCc1nnc(NC(=O)C(=O)c2cc(C)n(-c3ccccc3)c2C)s1` is -19.2%.
`CC(C)N(Cc1ccccc1)C(=O)Cn1ncc2c([nH]c3ccccc32)c1=O`: the inhibition was 5.82%.
For `O=C(Cn1ccc2cc(S(=O)(=O)N3CCCCC3)ccc21)NCc1cccc(Cl)c1` the value was -10.2%; for `CC1CCC(NC(=O)c2cc3c(Cl)nc4ccccc4c3s2)CC1` (configuration not stated), -2.63%.
The figure for `COc1ccc(F)cc1S(=O)(=O)Nc1cccc(-c2ccc(N3CCCCCC3)nn2)c1` is 11%; for `COc1ccc(NC(=O)CSc2ccccn2)c([N+](=O)[O-])c1` it is active: 31.3%.
The figure for `CCOc1ccccc1NC(=O)Cn1c(=O)n(Cc2ccccc2)c(=O)c2cccnc21` is -3.14%.
Regarding `CCOC(=O)C(C)NC(=O)C1CCN(c2ncnc3c2nc2n3CCCCC2)CC1` (configuration not stated), the inhibition was -15.6%.
For `C=C(C)Cn1c(SCC(=O)O)nnc1-c1ccc(C(C)(C)C)cc1` the value was active: 30.2%; for `Cc1cc(C)c(NC(=O)Cn2nnc(-c3ccccc3)n2)c(C)c1`, -4.57%.
Consider `Cc1cc(S(=O)(=O)NCC(c2ccco2)S(=O)(=O)c2ccccc2)ccc1F` (configuration not stated), for which the inhibition was found to be 6.5%.
The figure for `Cc1ccc(OC(=O)CSc2nnc(-c3cccs3)o2)cc1` is 17.2%; for `CNC(=O)c1c(NC(=O)/C=C/c2ccccc2Cl)sc2c1CCC2` it is -0.68%.
For `Cc1ccccc1C(=O)N(Cc1nc(-c2ccc(Cl)cc2)no1)C(C)C` the value was -7.68%.
Regarding `CCn1c(=O)c2sccc2n2c(CCC(=O)N3CCN(c4ccc(C(C)=O)cc4)CC3)nnc12`, the inhibition was 2.43%.
Turning to `CC(NC(=O)CN(c1ccc(Cl)cc1Cl)S(=O)(=O)c1ccccc1)c1ccccc1` (configuration not stated), the inhibition was 7.05%.
In the case of `O=C(Cn1c(-c2cccs2)cc2cc(Cl)ccc21)N1CCN(c2ccccc2F)CC1`, the inhibition was determined as 0.251%.
For `COc1ccc(C(=O)c2oc3ccccc3c2NC(=O)COc2cccc(C)c2C)cc1` the value was -17.8%; for `COc1ccc(NC(=O)C(Cc2ccccc2)n2cccc2)cc1OC` (configuration not stated), -0.0545%; for `COc1cc(-c2noc(CCC(=O)Nc3cc(C)ccc3C)n2)cc(OC)c1OC`, 0.781%.
For `COc1ccc(OC)c(-n2nnnc2SCC(=O)Nc2ccccc2OC)c1` the value was active: 31.1%.
On to `Cc1ccccc1Cn1c2ccccc2c2cnn(CC(=O)NCCc3ccccc3)c(=O)c21`, for which the inhibition is 14.8%.
For `COc1ccc(NC(=O)CCS(=O)(=O)c2ccc3nc(C)sc3c2)cc1Cl`, the inhibition turned out to be 7.6%.
Take `Cc1ccc(-n2ncc(C(=O)NCCc3c[nH]c4ccccc34)c2C2CCN(C(=O)OC(C)(C)C)CC2)cc1C`: the inhibition turned out to be 13.4%.
For `CCn1c(=O)c([N+](=O)[O-])c(NCCN(C)C)c2ccccc21` the value was active: 59.2%; for `COc1ccc(CNC(=O)CN2C(=O)CSc3ccc(S(=O)(=O)N4CCOCC4)cc32)c(OC)c1`, -0.151%.
The figure for `COc1cccc(CNC(=O)c2cc(S(=O)(=O)N3CCCCC3)cn2C)c1` is 21.8%.
For `CC(=O)Nc1ccc(NC(=O)CSc2nc3ccccc3nc2N2CCC(C)CC2)cc1` the value was -3.79%; for `COc1ccc(OC(=O)c2nc(SCc3ccc(F)cc3)ncc2Cl)cc1`, -5.79%.
Regarding `O=c1c(S(=O)(=O)c2ccccc2)cn(Cc2cccc(F)c2)c2cc(N3CCOCC3)c(F)cc12`, the inhibition is 1.28%.
For `CCOc1ccc(NC(=O)c2cnn3c2NC(c2cccc(OC)c2)=CC3c2ccccc2)cc1` (configuration not stated) the value was -2.71%.
For `COc1cccc(-c2nnc(-c3ccccc3NC(=O)c3cccc(C(F)(F)F)c3)o2)c1` the value was -7.93%.
For `CCOC(=O)c1cc(OC(=O)c2ccc(C)cc2)n(-c2ccccc2)n1`, the inhibition is -5.32%.
For `Cc1ccc(C(=O)Nc2nnc(S(=O)(=O)N3c4ccccc4CC3C)s2)cc1` (configuration not stated) the value was -4.01%; for `COc1ccc(NC(=O)c2ccco2)cc1NC(=O)COc1ccccc1`, 9.62%.
`CCc1ccc(S(=O)(=O)c2cn(C)c3cc(N4CCC(C)CC4)c(F)cc3c2=O)cc1`: the inhibition came to 0.71%.
`CCOC(=O)c1ccc(NC(=O)c2c(NCc3cccs3)sc3c2CCCC3)cc1`: the inhibition was found to be 6.81%.
The figure for `Cn1c(=O)n(C)c2cc(N3CCOCC3)c(NC(=O)c3ccccc3Br)cc21` is 6.38%; for `Cn1c(=O)c(=O)n(C)c2cc(S(=O)(=O)CCC(=O)Nc3ccc(F)cc3)ccc21` it is 19.6%; for `CCOc1ccccc1C(=O)Nc1c(C(=O)Nc2ccc(F)cc2)oc2ccccc12` it is -0.177%.
On to `CCOc1ccc(C2Nc3c(C)cccc3-c3cc(C)nn32)cc1` (configuration not stated), for which the inhibition was -3.34%.
As for `Cc1oc2ncnc(N3CCOCC3)c2c1C(=O)N(Cc1ccccc1)C(C)C`, the inhibition came out at 6.92%.
For `COc1ccc(S(=O)(=O)NCC(c2ccco2)S(=O)(=O)c2cccs2)cc1C` (configuration not stated) the value was 4.01%; for `Cc1c(C(=O)N2CCCCCC2)c(S(=O)(=O)NCc2ccc(Br)cc2)c(C)n1C`, 3.99%.
For `COc1ccc(/C=N/NC(=O)COc2ccccc2-c2ccccc2)cc1`, the inhibition was active: 39.5%.
With `Cc1ccc(-c2nc3ccccn3c2Nc2ccccc2C)s1`, the inhibition was -12.3%.
The figure for `CCOc1ccc(CNC(=O)c2ccc3nc(C(C)C)oc3c2)cc1` is 15.2%; for `COC(=O)c1ccc(NC(=O)NCCn2nnc3cc(S(=O)(=O)N(C)C)ccc32)cc1` it is -7.85%; for `COc1ccc(Nc2cc(C(=O)NC3CCC(C)CC3)c3ccccc3n2)cc1OC` (configuration not stated) it is -12.2%.
For `CCCOc1ccc(CNC(=O)Cn2ncn3c(cc4sc(CC)cc43)c2=O)cc1`, the inhibition was 1.71%.
The figure for `CC(C)c1ccc(C(=O)Nc2cc(-c3ccccc3F)nn2-c2ccccc2)cc1` is -13.6%; for `Cc1ccc(-c2nnn3c2nc(NCCc2ccc(Cl)cc2)c2ccccc23)cc1` it is 4.08%; for `O=C(NCc1ccc(F)cc1)c1ccc2c(O)c(S(=O)(=O)c3ccccc3)c(=O)[nH]c2c1` it is 18.1%.

For the origin of these results see PubChem BioAssay AID485344 (National Center for Advancing Translational Sciences (NCATS), 2010).
